According to PubChem BioAssay (NCI):
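In this assay, cells in 96-well plates receive the compound at five concentrations for 48 hours. Endpoints are linearly interpolated between the surrounding concentrations. The concentration for 50% growth inhibition is given as GI50. The concentration for full growth arrest is given as TGI.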

Test system: NCI-H322M lung
Assay: NCI anticancer screen, dose series, 48 h

C=C1CCC2C3(C)COC(c4cccc(F)c4)OC3CCC2(C)C1C/C=C1/C(=O)OCC1O (centres undefined)
GI50: 10.9 µM
TGI: 22.9 µM

CCCCNC(=S)Nc1ccc(OCc2nc3ccc(Cl)cc3[nH]2)cc1
GI50: 10.4 µM
TGI: 22.2 µM
